Measurements from publication PMC4336329 (PLoS ONE, 2015).
The whole screen tested about 310,000 compounds, of which about 14,000 (4.5%) showed an effect of 50% or more. Effects have a minus sign here. Some of the results follow.

Biological target: human ether-à-go-go-related gene (hERG) potassium channel (human, UniProt Q12809)
Assay: primary screen, population patch clamp on CHO cells stably expressing hERG
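Further: peak tail current of the secondary pulse compared with the same well before compound.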

human ether-à-go-go-related gene (hERG) potassium channel, sequence (Q12809 whole entry, looked up): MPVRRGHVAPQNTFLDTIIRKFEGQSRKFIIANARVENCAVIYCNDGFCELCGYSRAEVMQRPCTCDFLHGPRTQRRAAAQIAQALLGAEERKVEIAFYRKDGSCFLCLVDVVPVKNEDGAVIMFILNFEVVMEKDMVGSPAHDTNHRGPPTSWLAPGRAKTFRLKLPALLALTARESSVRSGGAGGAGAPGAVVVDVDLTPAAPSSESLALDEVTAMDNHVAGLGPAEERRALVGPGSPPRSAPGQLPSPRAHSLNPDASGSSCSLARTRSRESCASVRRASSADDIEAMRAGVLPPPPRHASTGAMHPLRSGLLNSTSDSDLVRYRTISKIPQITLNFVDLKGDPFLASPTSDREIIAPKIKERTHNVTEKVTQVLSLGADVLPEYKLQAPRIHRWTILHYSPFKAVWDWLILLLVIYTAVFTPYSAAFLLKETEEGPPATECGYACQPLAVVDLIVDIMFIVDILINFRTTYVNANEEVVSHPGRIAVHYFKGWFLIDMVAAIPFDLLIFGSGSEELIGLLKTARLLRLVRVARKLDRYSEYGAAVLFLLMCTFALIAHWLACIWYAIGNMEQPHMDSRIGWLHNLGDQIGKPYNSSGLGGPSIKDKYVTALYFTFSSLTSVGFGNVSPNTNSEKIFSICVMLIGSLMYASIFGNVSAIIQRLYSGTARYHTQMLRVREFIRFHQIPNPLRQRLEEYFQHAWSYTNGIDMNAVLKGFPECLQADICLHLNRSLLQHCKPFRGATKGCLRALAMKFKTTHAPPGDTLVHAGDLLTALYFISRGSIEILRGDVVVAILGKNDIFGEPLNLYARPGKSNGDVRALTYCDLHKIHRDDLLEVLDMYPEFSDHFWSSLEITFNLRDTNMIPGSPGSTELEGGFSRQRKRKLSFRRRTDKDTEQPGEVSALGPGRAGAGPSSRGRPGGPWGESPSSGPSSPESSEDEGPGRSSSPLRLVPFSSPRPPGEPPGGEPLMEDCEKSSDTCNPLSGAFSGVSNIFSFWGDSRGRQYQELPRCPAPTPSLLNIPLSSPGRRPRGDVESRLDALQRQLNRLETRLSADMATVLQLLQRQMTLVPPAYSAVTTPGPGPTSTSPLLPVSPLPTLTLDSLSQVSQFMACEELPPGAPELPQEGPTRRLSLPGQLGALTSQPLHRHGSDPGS

First: O=c1cc(-c2ccccc2)cc(-c2ccccc2)n1CCO
Second: O=C(CCNS(=O)(=O)c1ccccc1)Nc1ccccc1
The “hERG current change (%, negative = inhibition) at 10uM” value of the first is lower: -21.5% for the first, 17.8% for the second.

Compared with `Cc1onc(-c2ccccc2)c1C(=O)N/N=C/c1ccccc1OC(C)C`, `Cc1onc(-c2ccccc2)c1C(=O)N1CCN(c2ccccc2)CC1` is higher in “hERG current change (%, negative = inhibition) at 10uM” value: 4.5% for the first, 11.9% for the second.

First: Cc1cccc(Cn2c(NCCO)nc3c2c(=O)n(C)c(=O)n3C)c1
Second: Cc1csc(SCC(=O)N(C)c2c(N)n(Cc3ccccc3)c(=O)[nH]c2=O)n1
The “hERG current change (%, negative = inhibition) at 10uM” value of the first is lower: -11% for the first, 15.4% for the second.

Going from `CCc1ccc(C2=NN(C(C)=O)C(c3ccco3)C2)cc1` (stereo not shown) to `CCc1ccc(OCC(O)CN2CCN(c3ccccn3)CC2)cc1.Cl` (stereo not shown), the “hERG current change (%, negative = inhibition) at 10uM” value falls from -9.61% to -67.4%.

First: C#Cc1ccc([C@@H]2C=C(C(=O)N3CCN(Cc4ccc5c(c4)OCO5)CC3)O[C@H](OCC)[C@H]2CCCO)cc1
Second: N#Cc1ccc(OCC(=O)N2CCN(C(=O)c3ccco3)CC2)cc1
The “hERG current change (%, negative = inhibition) at 10uM” value of the first is higher: -15.8% for the first, -71% for the second.

Going from `CC1C=CCC2C(=O)N(c3cccc(C(=O)N4CCCCCC4)c3)C(=O)C12` (stereo not shown) to `CC(=O)c1cccc(NC(=O)c2ccc(S(=O)(=O)N3CCCCC3)cc2)c1`, the “hERG current change (%, negative = inhibition) at 10uM” value rises from -3.15% to 1.77%.

Going from `O=C1N=C(N2CCOCC2)CS1` to `COc1ccc2nc(C)cc(N3CCOCC3)c2c1`, the “hERG current change (%, negative = inhibition) at 10uM” value falls from -8.06% to -14.6%.

Compared with `COc1cccc(C(=O)Nc2ccc3c(c2)C(=O)c2ccccc2C3=O)c1`, `COc1ccccc1NS(=O)(=O)c1cccc(NC(=O)c2[nH]c(C)c(C(C)=O)c2C)c1` is lower in “hERG current change (%, negative = inhibition) at 10uM” value: 16.5% for the first, 13.7% for the second.

Going from `CCOC(=O)c1nnn(-c2nonc2N)c1-c1ccccc1Cl` to `CCOC(=O)c1c[nH]c2c(Cl)ccc(Cl)c2c1=O`, the “hERG current change (%, negative = inhibition) at 10uM” value falls from 15.3% to -4.33%.

Going from `Cc1cc(Cc2c(O)[nH]c(=S)[nH]c2=O)ccc1OC(C)C` to `CCC(Oc1ccccc1OC)C(=O)Nc1ccc2c(c1)n(C)c(=O)n2C` (stereo not shown), the “hERG current change (%, negative = inhibition) at 10uM” value falls from 13.8% to -2.13%.

Compared with `CC(C)CC(=O)Nc1cccc(NC(=O)CC(C)C)n1`, `Cc1nc(SCC(=O)NCc2ccco2)[nH]c(=O)c1C` is higher in “hERG current change (%, negative = inhibition) at 10uM” value: 5.81% for the first, 18.1% for the second.

Compared with `C=CCN(c1ccccc1)S(=O)(=O)c1cccc(C(=O)NC2CCC(O)CC2)c1` (stereo not shown), `O=S(=O)(NCC1NCCc2ccccc21)c1ccccc1` (stereo not shown) is lower in “hERG current change (%, negative = inhibition) at 10uM” value: -7.48% for the first, -42.5% for the second.

Compared with `Cc1ccc(C(=O)O)cc1NC(=S)NC(=O)c1ccc([N+](=O)[O-])c(C)c1`, `COC(=O)c1ccccc1NC(=S)NC(=O)c1ccc2ccccc2c1` is higher in “hERG current change (%, negative = inhibition) at 10uM” value: 32.3% for the first, 33.2% for the second.

Going from `COc1cccc(CNC(=O)CSc2nc3c(oc4ccccc43)c(=O)n2CC2CCCO2)c1` (stereo not shown) to `COc1ccc(S(=O)(=O)N2CCC(c3cc(-c4cccc5ccccc45)n[nH]3)CC2)cc1`, the “hERG current change (%, negative = inhibition) at 10uM” value rises from -36.4% to 19%.

Compared with `Cc1cccc(C)c1NC(=O)CCCSc1nnc(N)s1`, `Cc1csc(NC(=O)c2ccc(C)s2)n1` is lower in “hERG current change (%, negative = inhibition) at 10uM” value: 7.8% for the first, 6.99% for the second.

First: Cn1cnc(S(=O)(=O)Nc2ccccc2N2CCOCC2)c1
Second: O=C(COC(=O)CCc1nc2ccccc2s1)Nc1cccc(S(=O)(=O)N2CCOCC2)c1
The “hERG current change (%, negative = inhibition) at 10uM” value of the first is higher: 0.647% for the first, -42.3% for the second.

First: Cc1cc(C)c(NC(=O)c2ccc(CN3CCc4ccccc4C3)cc2)c(C)c1
Second: COc1ccc(C(=O)OCc2ccc(C)cc2)cc1S(=O)(=O)N1CCOCC1
The “hERG current change (%, negative = inhibition) at 10uM” value of the first is lower: -26.6% for the first, -24.6% for the second.

Going from `c1ccc(Cn2nnnc2-c2ccco2)cc1` to `O=c1[nH]c(C2CCN(S(=O)(=O)c3ccccc3)CC2)nc2c1nnn2Cc1cccc(Cl)c1`, the “hERG current change (%, negative = inhibition) at 10uM” value rises from -3.96% to -2.4%.

Going from `COCC(=O)N1CCC(Oc2ccc(C(=O)NC(C)c3nc(C)sc3C)cc2)CC1` (stereo not shown) to `CCOc1ccccc1C(=O)NC1CCN(CC(=O)Nc2cc(OC)ccc2OC)CC1`, the “hERG current change (%, negative = inhibition) at 10uM” value falls from 21% to -77.2%.

Going from `Br.N=C(N)SCCc1cnc[nH]1` to `CCCCOC(=O)CCc1c(C)n[nH]c1C`, the “hERG current change (%, negative = inhibition) at 10uM” value falls from 11.9% to 3.8%.

Compared with `COC(=O)c1ccc2c(=O)[nH]c(COC(=O)CCC(=O)c3ccc(Cl)cc3)nc2c1`, `COc1ccc(C(=O)N/C(=C\c2cn(S(=O)(=O)N(C)C)c3ccccc23)C(=O)NC(C)C)cc1` is higher in “hERG current change (%, negative = inhibition) at 10uM” value: 7.45% for the first, 23.9% for the second.

Compared with `COc1ccc(C(C(=O)NC2CCCC2)N(C(=O)c2ccco2)c2cc3c(cc2C(C)=O)OCO3)cc1` (stereo not shown), `COC(=O)C1=C(N)N(c2ccccc2C(F)(F)F)C2=C(C(=O)CCC2)C1c1ccc2c(c1)OCO2` (stereo not shown) is higher in “hERG current change (%, negative = inhibition) at 10uM” value: 1.72% for the first, 20.5% for the second.

Compared with `COCCNC(=O)/C(C#N)=C/c1ccc(OCc2ccccc2)cc1`, `CC(C)C(NC(=O)COc1ccc2ccccc2c1)C(=O)N/N=C/C=C/c1ccccc1` (stereo not shown) is higher in “hERG current change (%, negative = inhibition) at 10uM” value: 4.93% for the first, 14.8% for the second.

First: O=C(C1CCN(S(=O)(=O)N2CCC3(CC2)OCCO3)CC1)N1CCN(Cc2ccccc2)CC1
Second: O=C(C1CC(c2ccc(Cl)c(Cl)c2)=NO1)N1CCC2(CC1)OCCO2 (stereo not shown)
The “hERG current change (%, negative = inhibition) at 10uM” value of the first is lower: -25% for the first, -19.8% for the second.

First: COc1cc2c(cc1OC)C(COc1ccccc1OC)N(C(C)=O)CC2 (stereo not shown)
Second: COc1ccc(C(=O)Nc2cc3c(cc2N2CCCCC2)n(C)c(=O)n3C)cc1OC
The “hERG current change (%, negative = inhibition) at 10uM” value of the first is higher: 14.8% for the first, 13.1% for the second.

First: CCOC(=O)N1CCC(C(N)=O)CC1
Second: COc1ccc(COC(=O)C2CCN(S(=O)(=O)c3ccc(F)cc3)CC2)cc1
The “hERG current change (%, negative = inhibition) at 10uM” value of the first is higher: 9.11% for the first, -13.9% for the second.

Going from `O=C(N/N=C/C=C/c1ccco1)c1cnccn1` to `O=C(NCc1ccco1)/C(=C\c1ccco1)NC(=O)c1cccs1`, the “hERG current change (%, negative = inhibition) at 10uM” value falls from -1.16% to -14.8%.

First: CCCCNCc1cc(OC)c(OCC(N)=O)cc1Br
Second: CCOC(=O)CSc1nc(C)c2cc(OC)ccc2n1
The “hERG current change (%, negative = inhibition) at 10uM” value of the first is lower: -1.04% for the first, 1.7% for the second.

First: CN(C)c1ccc(C(CNC(=O)Cc2cccc3ccccc23)N(C)C)cc1 (stereo not shown)
Second: COc1ccc(N(C)C(=O)c2cc3c(Cl)nc4ccccc4c3s2)cc1
The “hERG current change (%, negative = inhibition) at 10uM” value of the first is lower: -32.8% for the first, -4.49% for the second.

First: CN(CC(=O)NCc1ccccc1)S(=O)(=O)c1ccc2c(c1)CCC(=O)N2
Second: O=S(=O)(Cc1ccccc1)NCC1CCCN(Cc2cccc3nonc23)C1 (stereo not shown)
The “hERG current change (%, negative = inhibition) at 10uM” value of the first is lower: -14.7% for the first, -12.2% for the second.

First: O=C(Nc1ccc(Br)cc1)c1cccc2c1C(=O)N(C1CCCCC1)C2
Second: O=C(c1ccoc1)N1CCCC(N2CCN(c3ccc(F)cc3)CC2)C1 (stereo not shown)
The “hERG current change (%, negative = inhibition) at 10uM” value of the first is higher: 16.4% for the first, -48.1% for the second.

Going from `O=c1c2ccc([N+](=O)[O-])cc2ncn1Cc1ccccc1C(F)(F)F` to `CCOc1ccc(N2C(=O)CC(NCCNc3ccc([N+](=O)[O-])cn3)C2=O)cc1` (stereo not shown), the “hERG current change (%, negative = inhibition) at 10uM” value falls from -31.8% to -77.5%.

First: CC(=NCCCn1ccnc1)c1c(-c2ccccc2)[nH]n(-c2nc3ccccc3s2)c1=O
Second: CCn1c2ccccc2c2cc(N=C3SC(CC(=O)Nc4ccccc4)C(=O)N3C)ccc21 (stereo not shown)
The “hERG current change (%, negative = inhibition) at 10uM” value of the first is lower: -70.8% for the first, 15.8% for the second.

Going from `CC(=O)NC(c1ccc(C)cc1)c1cc(Cl)c2cccnc2c1O` (stereo not shown) to `CC(=O)NC(C)c1cc(Cl)c2cccnc2c1O` (stereo not shown), the “hERG current change (%, negative = inhibition) at 10uM” value rises from 4.05% to 15.3%.

First: CCn1c(COc2ccc(Cl)cc2)nnc1SC1CCc2ccccc2C1=O (stereo not shown)
Second: COc1ccccc1-c1nnc(SCC(=O)c2c(N)n(C3CC3)c(=O)[nH]c2=O)o1
The “hERG current change (%, negative = inhibition) at 10uM” value of the first is lower: -15.5% for the first, -7.39% for the second.

Compared with `Cc1noc(C)c1S(=O)(=O)Nc1ccc(C(C)C)cc1`, `CC(C)c1ccc(NCCC(=O)c2cccs2)cc1` is higher in “hERG current change (%, negative = inhibition) at 10uM” value: -17.6% for the first, 2.35% for the second.

Going from `COc1ccc(CCNC(=O)c2cccc(C(=O)NCCc3ccc(OC)cc3)n2)cc1` to `COc1ccc(CNC(=S)Nc2cccc(Cl)c2)cc1`, the “hERG current change (%, negative = inhibition) at 10uM” value rises from -36.9% to 10.4%.

Compared with `CCC(=O)Nc1cccc(C2=NOC3(C2)C[C@@H](C(N)=O)N(C(=O)c2ccccc2C(=O)c2ccccc2)C3)c1` (stereo partly shown), `O=C(NCc1ccccc1Cl)/C(=C\c1cccnc1)NC(=O)c1ccccc1` is lower in “hERG current change (%, negative = inhibition) at 10uM” value: 0.194% for the first, -48.7% for the second.

Going from `O=C(C1CCN(c2ncnc3c2nc2n3CCCCC2)CC1)N1CCN(c2ccc(F)cc2)CC1` to `CCN1CCN(Cc2c(O)ccc3c(=O)c(-c4ccc(OC)c(OC)c4)c(C(F)(F)F)oc23)CC1`, the “hERG current change (%, negative = inhibition) at 10uM” value rises from -51.5% to -2.47%.

First: Nc1cccc(-c2cnc3ccccc3n2)c1
Second: S=C(Nc1ccccc1)c1ccccn1
The “hERG current change (%, negative = inhibition) at 10uM” value of the first is higher: 14.7% for the first, 6.46% for the second.

First: COc1ccc(/C=C2\CCC(C3CCCC3)C2=O)c(OC)c1 (stereo not shown)
Second: CCOc1ccc(OCCC(=O)Nc2ccc(F)cc2C)cc1
The “hERG current change (%, negative = inhibition) at 10uM” value of the first is lower: 13.1% for the first, 21.2% for the second.

First: CC1=C(C)CC(C(=O)Nc2nc(C)cs2)C(C(=O)O)C1 (stereo not shown)
Second: CCOC(=O)Cc1csc(NC(=O)c2ccoc2C)n1
The “hERG current change (%, negative = inhibition) at 10uM” value of the first is higher: 14.2% for the first, -2.79% for the second.

Going from `CCCCNC(=O)c1onc(CSc2ccc(Cl)cc2)c1C(=O)O` to `COc1ccc(C(=O)O)cc1S(=O)(=O)NCc1ccccn1`, the “hERG current change (%, negative = inhibition) at 10uM” value rises from -4.94% to 12.5%.

Going from `N#CCC(N)=C(C#N)C#N` to `Cl.c1ccc(C2CN3CCSC3=N2)cc1` (stereo not shown), the “hERG current change (%, negative = inhibition) at 10uM” value rises from -1.83% to 12%.
